Measurements taken from article PMC12136788.
This is one part of the list.

T1: UNK ZnF1-3 (human, UniProt Q9C0B0 31-174)
T1 sequence: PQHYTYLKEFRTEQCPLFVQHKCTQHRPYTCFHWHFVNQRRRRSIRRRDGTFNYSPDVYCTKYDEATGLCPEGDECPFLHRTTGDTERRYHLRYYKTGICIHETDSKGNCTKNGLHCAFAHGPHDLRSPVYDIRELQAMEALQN

B1: chr13:100211666:100211667:-_ENSMUSG00000052727_ENSMUST00000064762|mus_hu|motif|central (ssRNA)
RNA: GGGAGUUCUACAGUCCGACGAUCGUUGGCAGGAUGGGUGGUGCUUAGUAACUCCCCGAUCUCUUGAUCGGUGAAAAUCUCGGUGAAGUUCUGGAAGGAGAAAGAGCCGGACUGGAGAAUGAGCUCUCCGGUAUUUUCAAAGCACAACAGAGGAUUGAGCAUCA
B2: chr5:65459698:65459699:+_ENSG00000153914_ENST00000334121|hu_hu|FALSE|FALSE (ssRNA)
RNA: GGGAGUUCUACAGUCCGACGAUCCAUUACUUCUUCUAACUCCUUAGCUGCAGCCUGAGGUGUCAUCUCAGGGGGUUUUACUAUUGCAUUGUUGGAGUGAUUUAUUUUCAGUGGCCUGUCUCCAAACAUAACUCCAUUAAAAGCCAACAGAGGAUUGAGCAUCA
B3: chr3:49759264:49759265:-_ENSG00000173540_ENST00000308388|hu_hu|motif|central (ssRNA)
RNA: GGGAGUUCUACAGUCCGACGAUCGCCAAUAGACUUGUGGGGCAGCACGCUGGCUCCGUUGAGGUAGAGCUCAUCAUUAACGGUGACGUCCUCACCCAGCACUGUCACGUUCUCCAUGCGUACCCACUGACCCACGCGGCAGCGCAACAGAGGAUUGAGCAUCA
B4: 121206833_121220548_975_CDS_ENSG00000157837_ENST00000353487|human|control|control (ssRNA)
RNA: GGGAGUUCUACAGUCCGACGAUCCAUGGCGACACAGAGGCCCAUGGCCAGUGCAUCCAUGAGAAGCCAAUGGCCAGUGAGAACCCAGAUGAGGACGAGCAUGACAGACAGAGAGAAUGACAGCAACUCAGCAGCAGUGAAACGCAACAGAGGAUUGAGCAUCA
B5: chr7:127875444:127875445:+_ENSMUSG00000046096_ENSMUST00000060175|mus_mus|FALSE|FALSE (ssRNA)
RNA: GGGAGUUCUACAGUCCGACGAUCACGUGUGUAAAGCAUUAGAGGGAAUAUUGUAUUGCUUAAGAGUUUGGUGAAGAUCUACUAAUACAGAUAAAAUGCGAUUUUUAUGGAAGAGCAGAACUAGUGUUGUAAAUAGCCAAAACACAACAGAGGAUUGAGCAUCA
B6: chrX:77158196:77158197:+_ENSG00000131174_ENST00000481445|hu_mus|FALSE|FALSE (ssRNA)
RNA: GGGAGUUCUACAGUCCGACGAUCUCCAAUUUGUGUGGCUGUAUAUGUCCAUGUAGAAACACAGAAGAUGGCUCCACCUGCUAAUAUAGCAUUCCCAUAUUUGUCAUGGAAACUAGGUGCCCUCUUCUGGUGGCUCUGCCUUGCCAACAGAGGAUUGAGCAUCA
B7: chr9:110451855:110451856:+_ENSMUSG00000044791_ENSMUST00000153838|mus_hu|motif|central (ssRNA)
RNA: GGGAGUUCUACAGUCCGACGAUCAACUGGCAUAGACAUGAGUUUAUCUUGGUGUGGUGACACCAGAGGUUCUGUUUCUCGGAAUGGGCUUUCUGACUUCUUAUGCAGCAUGCAGGUAUCAUCCAAGUCUUUUUCUUUGCACCUCAACAGAGGAUUGAGCAUCA
B8: 75303403_75303614_765_CDS_ENSMUSG00000020850_ENSMUST00000018449|mouse|control|control (ssRNA)
RNA: GGGAGUUCUACAGUCCGACGAUCUAAGAUGUUGUCGGCAUAAUCCAGGGGCGGUUCCUCGUCAUCGAAAGGGGGGAAACGCAUCCUCUUGAAAUGCCUCCUGUCUCUUUUUUCUCUACGCAUCAUGAUCCACAUUGACCCCCACAACAGAGGAUUGAGCAUCA
B9: chr16:17428906:17428907:+_ENSMUSG00000022765_ENSMUST00000023449|mus_hu|motif|central (ssRNA)
RNA: GGGAGUUCUACAGUCCGACGAUCGCGGGGACAUCUGCCAACAAAAGAGCAAGAUGGCACACUCUAUUUCCCAUUCGGACACUGAUCCUUUCUGGGAGGAUGAAAGAAUCACAGAUAAUGUGCUCAGAGAGUGUGUGUGUGUGUCAACAGAGGAUUGAGCAUCA
B10: chr1:225611761:225611762:-_ENSG00000143815_ENST00000272163|hu_mus|hu_hu_hu_mus_True|8_58 (ssRNA)
RNA: GGGAGUUCUACAGUCCGACGAUCCCAGGCCAUCGGCCUCUGACCACUUCACCCUCAACAAACUUCCUACUUGGCAUUUUCUAUAAUUAGUCUGGCCGCGCUCCGGCGGGAACUCCAGCCACUCCAGGGAGAAUAGUAGCAGCCCAACAGAGGAUUGAGCAUCA
B11: chrX:102931257:102931258:-_ENSG00000123562_ENST00000441076|hu_mus|FALSE|FALSE (ssRNA)
RNA: GGGAGUUCUACAGUCCGACGAUCUAAUGCCAGGCUUUUCUCAUCAAGGGGCGUAUAGGCCAACAUUGCCCCAAUUCUCACGAAUAAUCUCAGGAGGUGUGGCGCCCCAUAGAUCUGCGACAUCGGCGCAUCAGGGUGAGCCAGCAACAGAGGAUUGAGCAUCA
B12: 75418379_75418499_4881_3pUTR_ENSMUSG00000032186_ENSMUST00000064433|mouse|control|control (ssRNA)
RNA: GGGAGUUCUACAGUCCGACGAUCCCCUAAGAUGUAUAUUUUAUCUUCUAGUAGUUCCCUUCAAAAUAUAAAUGCUGAUGGAAAUGUCACUUUACAUGCUAGUUAAAAAUCCACGAUGAUAAAACAGCUGAUUAGUAAUAAUCUCAACAGAGGAUUGAGCAUCA
B13: 64289975_64290095_998_3pUTR_ENSG00000112245_ENST00000370650|human|control|control (ssRNA)
RNA: GGGAGUUCUACAGUCCGACGAUCAUUAGGCACCCCAAUUUUAUUGAAUGCAACAGUUGUUUCUAUGACCGUUGGAAUCUUUGAAACGCAGCCGCAUUUUAGGACGAUACUUCUCCAAAUACAGAAGUUGCUUGCUGUUAAAAGCAACAGAGGAUUGAGCAUCA
B14: 125249474_125249594_3487_3pUTR_ENSMUSG00000008683_ENSMUST00000172457|mouse|control|control (ssRNA)
RNA: GGGAGUUCUACAGUCCGACGAUCAGCUUGACCUCAAUCAAGGCAAAAGCUUACACGUGCAUACAUUUAGUAGUUUACUAAGUAAACAAUUAAGGUCGGUGCUGGCUCACCCCAGCCUUCCUUGAUUGUUCUGAGAACGCGUGGCAACAGAGGAUUGAGCAUCA
B15: chr5:70837361:70837362:+_ENSG00000145734_ENST00000358731|hu_hu|FALSE|FALSE (ssRNA)
RNA: GGGAGUUCUACAGUCCGACGAUCUGAUGCAGGAGAUGUAGUAAUGACAGGUGAAGAAAGUUCCUGACAUUCAUGAACAAUUUUGUGAUUUACAUUAUCUAGGCUAGAAGGAAUAUGGCUUUUAUCCUUUGAAUGAACAUGAGGCAACAGAGGAUUGAGCAUCA
B16: chr2:202488911:202488912:-_ENSG00000155755_ENST00000286196|hu_mus|hu_hu_hu_mus_False|28_28 (ssRNA)
RNA: GGGAGUUCUACAGUCCGACGAUCAUUGAAACAUUUUUCAUAAUCUCCAGUAGCAUUUCAGCAUUAUGUAACAAAAGCUCAAUUGUAAAUACAUGUAUCUUAUAAAAAUAAAAAUACAAACACGAGUGGGGAGCGCAGGCGCCACAACAGAGGAUUGAGCAUCA
B17: chr16:94646735:94646736:+_ENSMUSG00000040785_ENSMUST00000117648|mus_mus|FALSE|FALSE (ssRNA)
RNA: GGGAGUUCUACAGUCCGACGAUCUGUUUUUAACUUUUUCCAGCAGUUCAUAUGAAAUUCUACCUUACAGUAUUGGCAACAGCUAAUUCGUAUAAAACCCUUAAAGUCUGGAUCAGUUAAGUAAAUCUGAAUUUUAGAAUAUCCCAACAGAGGAUUGAGCAUCA
B18: chr9:91931296:91931297:+_ENSG00000123975_ENST00000314355|hu_hu|hu_hu_hu_mus_True|48_78 (ssRNA)
RNA: GGGAGUUCUACAGUCCGACGAUCAGAUUAGAUGAUCCCAGCUGCACUUCAUUUUUGUUGAUCUUUUGGAAGAGGUCGUCUAAAGAGAAGAAUAUGUGGUUCUGGCUCAUGAAUCAUGUAAUGAACCCAUCCUAGACUCUGUUGCAACAGAGGAUUGAGCAUCA
B19: chr7:75932113:75932114:+_ENSG00000106211_ENST00000248553|hu_hu|hu_hu_hu_mus_False|8_38 (ssRNA)
RNA: GGGAGUUCUACAGUCCGACGAUCCUGCGACCACUCAUCGGGCAACCGGGGCACCCCGAAAGCUUGAUCGAAGAGGCGGCUGUGUGCAGGGUACCAGCGGAAGGGGUGUUCCCAGCUCGGGCUCCGCAGCGAGAAGGAGGGCACCAACAGAGGAUUGAGCAUCA
B20: 107621200_107626530_929_CDS_ENSG00000091136_ENST00000393561|human|control|control (ssRNA)
RNA: GGGAGUUCUACAGUCCGACGAUCUCCCAAAGUAUGCAGUUUCACAAACUUGAUUCUCAAGUUGGUAAUUUUUAAUAAAUUCUGUAUCCUUGGGCUAUAAGGAUCUUCUAUUUUGAAAGCAGGAUCUAAAGCACGAAAUAUCACCAACAGAGGAUUGAGCAUCA
B21: chr9:119461815:119461816:+_ENSG00000119401_ENST00000373983|hu_mus|FALSE|FALSE (ssRNA)
RNA: GGGAGUUCUACAGUCCGACGAUCCUUGGGUGUGAGGGCGAUGCCCACUGGACAGGUAAGGCCCUCUCGAAUAAGGACGCUGUAGCCACCGCCCUUGGGAAAAUGGAGAAUUUCCUUGCGGCUGCUAUCUGCCACAAUGAGGUCCAACAGAGGAUUGAGCAUCA
B22: chr1:180971808:180971809:-_ENSG00000135823_ENST00000258301|hu_hu|FALSE|FALSE (ssRNA)
RNA: GGGAGUUCUACAGUCCGACGAUCUUUUCUUAUACUCAAUUCAGUUGCAUCAAGGUUAAAUUUUCUAGGAUUUGCUUCAACUAUGCUGAUGGUUUCAUCAAGGUCCUCUAGAUCCCACUCUAUGCUCCGGAGGUUAUUUCUCAGCAACAGAGGAUUGAGCAUCA

These binders were tested against T1, UNK ZnF1-3 (assay: nsRBNS (natural sequence RNA bind-n-seq); RBNS binding buffer (assumed for nsRBNS): 25 mM Tris pH 7.5, 150 mM KCl, 3 mM MgCl2, 0.01% Triton X-100, 500 ug/ml BSA, 20 U/ml SUPERase-In, 4 C; UNK is unkempt and MSI1 is Musashi-1; names of the RNAs are library labels; protein concentration not given here; high values mean tight binding).

Binder	binding signal
B1	1.15 enrichment R
B2	0.735 enrichment R
B3	0.91 enrichment R
B4	1.65 enrichment R
B5	1.36 enrichment R
B6	0.59 enrichment R
B7	0.743 enrichment R
B8	0.66 enrichment R
B9	1.68 enrichment R
B10	1.18 enrichment R
B11	0.895 enrichment R
B12	1.21 enrichment R
B13	0.97 enrichment R
B14	0.688 enrichment R
B15	0.842 enrichment R
B16	1.14 enrichment R
B17	0.716 enrichment R
B18	0.967 enrichment R
B19	1.53 enrichment R
B20	0.675 enrichment R
B21	0.643 enrichment R
B22	0.431 enrichment R
